# Data as given in PubChem BioAssay AID463173 (ICCB-Longwood Screening Facility, Harvard Medical School, 2010).
# Hit rate of the full screen: of about 52,000 compounds, about 1,700 (3.3%) were called active. Cut-off read from the data, not from the text of the source: active = survival mostly below about 52% (no sharp cut-off); inactive = mostly above about 56%. The list shows a part of the results.
# Test system: Wild type
# Experiment: growth inhibition of S. aureus wild type versus tarO mutant, primary screen, teichoic acid synthesis inhibitors, RN4220, OD600 (AID 463173)
# Details: S. aureus RN4220 wild type/DeltatarO growth, OD600, 18 h, active compounds read low, screened at 18.75 µg/mL (by protocol)
row,SMILES,survival
1,Cc1cc(NC(=O)CN(C)S(=O)(=O)c2ccc3c(c2)CCCC(=O)N3)ccc1Br,inactive: 55%
2,Cc1ccccc1-c1nc2c(c(SCc3cccc(Cl)c3)n1)Cc1c(CO)cnc(C)c1O2,inactive: 77%
3,CCOC(=O)c1cc(-c2ccccc2)n(CCC(=O)Nc2ccc(OC)c(Cl)c2)c1C,inactive: 101%
4,COc1cc(C)ccc1OCCSc1nc2ccc(NC(=O)c3ccc4c(c3)OCO4)cc2s1,inactive: 85%
5,O=C(Nc1cc(Cl)ccc1O)c1nc2ncccn2n1,inactive: 106%
6,O=C(O)C12CC3CC(CC(S)(C3)C1)C2,inactive: 106%
7,COc1cc(-c2nc(Cn3nnc(C(=O)Nc4ccccc4C)c3C)c(C)o2)cc(OC)c1OC,inactive: 77%
8,CCc1ccc(NC(=O)Cn2c(=O)n(CCCC(=O)NCc3ccccc3OC)c(=O)c3ccccc32)cc1,inactive: 133%
9,Cc1ccc(C)c(NC(=O)c2ccc(=O)n(Cc3ccc(F)cc3)c2)c1,inactive: 110%
10,COc1ccc(C)cc1NC(=O)c1ccc2c(c1)N(Cc1cccc(Cl)c1)C(=O)c1ccccc1S2=O (stereo unspecified),inactive: 101%
11,CC(=O)N1c2ccc(S(=O)(=O)N3CCCCCC3)cc2CC1C(=O)NCc1cccc(F)c1 (stereo unspecified),inactive: 65%
12,CC1Oc2ccccc2N(CC(=O)NC2CC2)C1=O (stereo unspecified),inactive: 106%
13,Clc1cccc(N2CCN(c3nc4ccccc4c4nc(-c5cccnc5)nn34)CC2)c1,inactive: 79%
14,Cc1ccc(S(=O)(=O)c2nc(-c3cccs3)oc2SC(C)c2ccccc2)cc1 (stereo unspecified),inactive: 44%
15,CCCCC(=O)Nc1cc(-c2nc3ccccc3o2)ccc1OC,inactive: 24%
16,CCS(=O)(=O)N1CCc2cc(C(=O)N3CCN(c4ccccc4)CC3)ccc21,inactive: 101%
17,CCOc1ccc(CC(=O)NCCS(=O)(=O)N2CCN(c3ccccc3OC)CC2)cc1,inactive: 72%
18,CCOC(=O)c1noc2ncn(CC(=O)Nc3ccc(OC)c(Cl)c3)c(=O)c12,inactive: 90%
19,Cc1cccc(CNC(=O)C2CCN(S(=O)(=O)c3cccc4nonc34)CC2)c1,inactive: 51%
20,CCCC(=O)OCc1cnc(C)c2oc(=O)c(C(=O)Nc3ccc(F)cc3C)cc12,inactive: 72%
21,CC1CCN(C(=O)CS(=O)(=O)Cc2ccccc2)CC1,inactive: 102%
22,COc1ccc(-c2noc(CNC(=O)c3ccc(OC)cc3OC)n2)cc1,inactive: 93%
23,O=S(=O)(NCc1ccco1)c1ccc(S(=O)(=O)N2CCCCC2)cc1,inactive: 99%

row,SMILES,survival
1,CCC1=Nc2cc(C(=O)N3CCC(C)CC3)ccc2Sc2ccc(C)cc21,active: -1%
2,Cc1ccc(C)c(NC(=O)C2CCCN2S(=O)(=O)c2ccc3c(c2)CCCC(=O)N3)c1 (stereo unspecified),inactive: 79%
3,Cc1ccc2[nH]cc(NC(=O)NCCO)c(=O)c2c1,inactive: 117%
4,Cc1ccc2nc(N3CCN(c4ccc(F)cc4)CC3)c3nnnn3c2c1,active: 14%
5,CCOc1ccc(CCNC(=O)C2CC(=O)N(CCc3ccc(OC)c(OC)c3)C2)cc1OCC (stereo unspecified),inactive: 77%
6,COC(=O)c1cn(-c2ccccc2)nc1C(=O)OC,inactive: 103%
7,COc1cccc(-c2noc(COc3cccc(C)c3C)n2)c1,inactive: 85%
8,CCCCN(CC)CCNC(=O)c1nn(-c2ccc(OC)cc2)c(=O)c2c1c1ccccc1n2C,inactive: 75%
9,N#C/C(=C\c1ccccc1)c1nc(-c2cc3c(ccc4ccccc43)oc2=O)cs1,inactive: 130%
10,CCOC(=O)c1c(NC(=O)COc2ccc(OC)cc2)sc(C(=O)N(CC)CC)c1C,active: -8%
11,CCOC(=O)c1cccc(NC(=O)Cn2cnc3nc4c(cc3c2=O)CCCC4)c1,inactive: 73%
12,O=c1sc2ccccc2n1CCCOc1ccccc1,inactive: 116%
13,CCN(CC)CCCNC(=O)c1ccc2c(c1)NC(=O)C(CS(=O)(=O)Cc1ccc(F)cc1Cl)N2 (stereo unspecified),inactive: 159%
14,COCCNC(=O)c1sc2nc3n(c(=O)c2c1C)CCC3,inactive: 85%
15,CCc1ccc(NS(=O)(=O)c2ccc3[nH]cc(C(=O)NCCc4ccccc4)c(=O)c3c2)cc1,inactive: 97%
16,COc1ccc(N2CC(c3nc(-c4ccccc4C)no3)CC2=O)cc1Cl (stereo unspecified),inactive: 88%
17,Nc1cccc(Cl)c1N1CCOCC1,inactive: 110%
18,CS(=O)(=O)N(CC(=O)O)c1ccc(Cl)cc1,inactive: 121%
19,Cc1ccc(-c2onc(C)c2C)cc1S(=O)(=O)N1CCc2ccccc21,inactive: 117%
20,Cc1nc(-c2ccc(Cl)cc2)sc1CCNC(=O)C(=O)Nc1ccccc1C#N,inactive: 74%
21,COC(=O)c1ccc(NC(=O)C(c2ccccc2)N2Cc3ccccc3C2=O)cc1 (stereo unspecified),inactive: 64%
22,Cc1cccc(CCNC(=O)CCc2c(C)nc3c(-c4ccc(F)cc4)c(C)nn3c2C)c1,inactive: 92%
23,CN1CCN(c2ccc(-c3nc(-c4ccccc4)no3)cc2[N+](=O)[O-])CC1,inactive: 27%

row,SMILES,survival
1,COc1ccc(N2CCN(C(=O)c3cc4c(s3)-c3c(C)cccc3OC4)CC2)cc1,inactive: 91%
2,Cc1cc(C)cc(NC(=O)C2CCCN(c3nnc(-n4c(C)ccc4C)s3)C2)c1 (stereo unspecified),inactive: 75%
3,C=Cn1c(C)c(C(C#N)=C(C#N)C#N)c2c1CCCC2,inactive: 55%
4,COCCn1c(SCC(=O)Nc2ccc(Br)cc2)nc2c([nH]c3ccccc32)c1=O,inactive: 92%
5,CCCc1ccc(OC(=O)c2sc3ncn(Cc4cccc(F)c4)c(=O)c3c2C)cc1,inactive: 67%
6,COc1ccc(NC(=O)Cn2c(SCc3c(F)cccc3Cl)nc3ccncc32)cc1OC,inactive: 77%
7,Nc1ccccc1-n1ccnc1,inactive: 100%
8,CCN(CC)c1ccc(NC(=O)C2CCCN(S(=O)(=O)c3ccc4c(c3)oc(=O)n4C)C2)c(C)c1 (stereo unspecified),inactive: 121%
9,Cc1ccc(NC(=O)C2CCCN(S(=O)(=O)c3ccc(C)cc3)C2)cc1 (stereo unspecified),inactive: 83%
10,CCOC(=O)c1c(S(=O)(=O)N2CCN(c3cc(Cl)ccc3C)CC2)c(C)n(C)c1C,inactive: 124%
11,COc1ccccc1CSc1nc2n(n1)C(c1ccccc1)C(C(=O)Nc1ccc(C)cc1)=C(C)N2 (stereo unspecified),inactive: 89%
12,COc1ccccc1-c1ncnn1-c1sc2c(c1C#N)CCCCC2,active: 1%
13,COc1cc(NS(=O)(=O)c2ccc3c(c2)OCC(C(=O)N2CCCC2)O3)cc(OC)c1 (stereo unspecified),inactive: 77%
14,COc1ccc(NC(=O)Cn2ncc3c4ccccc4n(Cc4ccccc4)c3c2=O)cc1OC,inactive: 86%
15,Cc1ccc(NC(=O)Cn2nc(-c3ccc(Cl)cc3)c3ccccc3c2=O)cc1,inactive: 79%
16,CCOc1ccc(Cc2nc(C)c(CC(N)=O)c(=O)[nH]2)cc1,inactive: 99%
17,CCCCNC(=O)c1ccc(-c2nc(CN3CCc4ccccc43)c(C)o2)cc1,inactive: 128%
18,COc1ccc(OC)c(S(=O)(=O)NCCc2sc(C)nc2C)c1,inactive: 65%
19,Cc1c(Cl)cccc1NC(=O)CCS(=O)(=O)c1cccc2nsnc12,inactive: 88%
20,Cc1ccc(Nc2c3c(nc4ccccc24)CCC3)cc1F,active: 2%
21,Cc1ccc(CNC(=O)CCN2C(=O)C(C)Oc3ccc(C)cc32)cc1 (stereo unspecified),inactive: 121%
22,CCc1ccc(-c2nc3cc(NC(=O)c4ccc(F)cc4)ccc3o2)cc1,inactive: 101%
23,Cc1cccc(COc2ccc(-c3cc(C(F)(F)F)n4nc(C)cc4n3)cc2)c1,inactive: 38%

row,SMILES,survival
1,Cc1cn2c(=O)cc(COC(=O)COc3ccc(F)cc3)nc2s1,inactive: 81%
2,COc1cccc(-c2nn(C)c3sc(C(=O)N4CCN(c5cccc(C(F)(F)F)c5)CC4)cc23)c1,inactive: 75%
3,COc1ccccc1N(CC(=O)NCCSc1ccccc1)S(=O)(=O)c1ccc(C)cc1,inactive: 74%
4,Cc1ccc(NC(=O)CCNS(=O)(=O)c2cccs2)cc1F,inactive: 64%
5,COc1cccc(CCNC(=O)c2cnc3sc(N4CCCC4)nn3c2=O)c1,inactive: 77%
6,Cc1cccc(-n2c3nc(=O)n(C)c(=O)c-3cc3c(C)nn(-c4ccccc4)c32)c1C,inactive: 83%
7,CSc1ncc2c(n1)-c1ccccc1N(Cc1ccccc1C)S2(=O)=O,inactive: 87%
8,COc1ccc(-n2c(=O)c3c(c4cc(OC)ccc4n3C)n(Cc3c(F)cccc3Cl)c2=O)cc1,inactive: 93%
9,COc1ccc(-c2cc(C(N)=O)on2)c(OC)c1,inactive: 114%
10,COC1(C(F)(F)F)NC(=O)N(c2ccc(F)cc2)C1=O (stereo unspecified),inactive: 68%
11,CCOC(=O)c1cnn(-c2cccc(Cl)c2)c1C1CCN(C(=O)OC(C)(C)C)CC1,inactive: 57%
12,Cc1ccc(OCCSc2nc3ccc(NC(=O)COc4ccc(C)cc4)cc3s2)cc1,inactive: 91%
13,CCOC(=O)C1=C(CN(CC)Cc2ccccc2)NC(=O)NC1c1ccc(Cl)cc1 (stereo unspecified),inactive: 69%
14,COc1ccc(NC(=O)N2CCC(n3c(C)nc4cccnc43)CC2)cc1OC,inactive: 69%
15,COc1ccc(Cl)cc1NC(=O)N1CCC2(CC1)Oc1ccccc1C(=O)N2Cc1ccc(F)cc1,inactive: 80%
16,CSc1nc2sc3c(c2c(=O)n1-c1ccc(C)cc1)CCCC3,inactive: 51%
17,CC1(C)Cc2c(sc(/N=C/N3CCCC3)c2C#N)C(C)(C)N1,inactive: 110%
18,Fc1ccc(NCc2nc3ccccc3n2CCOc2ccccc2Cl)cc1,inactive: 95%
19,CC1CCc2c(sc3nnn(CC(=O)Nc4ccccc4Cl)c(=O)c23)C1 (stereo unspecified),inactive: 77%
20,CCCCC(=O)Nc1cc(-c2cn3cccnc3n2)ccc1C,inactive: 135%
21,CCOc1ccc(-c2c(C)nn3c(C)c(C(=O)NC(C)c4ccccc4)cnc23)cc1OCC (stereo unspecified),inactive: 75%
22,O=C1NCN(c2ccccc2)C12CCN(c1nnnn1-c1ccccc1)CC2,inactive: 102%
